Laboratory results from PubChem BioAssay AID1240 (Sanford-Burnham Center for Chemical Genomics, 2008).
Values joined by “and” are separate entries in the source; they are usually repeats but may differ in a detail not shown here. Identical values can stand only once. Hit rate of the full screen: of about 50,000 compounds, about 800 (1.6%) showed an effect of 50% or more. The list shows a part of the results.

The molecules below were run against Bcl-2-like protein 10 (Homo sapiens) (UniProt Q9HD36) (assay: TR3 peptide-Bcl-B binding displacers, biochemical primary FP assay, phenotype converters (AID 1240;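 further: 0% = Bcl-B with tracer peptide and DMSO and 100% = tracer peptide lacking Bcl-B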)). Conditions: GST-Bcl-B / FITC-TR3 peptide fluorescence polarization; stronger effect = higher value; compound at 3.75 mg/L.
Sequence of UniProt Q9HD36 (Q9HD36 whole entry, looked up): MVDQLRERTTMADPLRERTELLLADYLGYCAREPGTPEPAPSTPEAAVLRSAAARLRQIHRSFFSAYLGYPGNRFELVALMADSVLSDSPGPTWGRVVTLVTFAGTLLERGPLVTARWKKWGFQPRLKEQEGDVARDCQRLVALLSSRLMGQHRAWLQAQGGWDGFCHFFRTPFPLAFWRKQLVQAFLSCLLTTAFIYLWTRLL

SMILES	displacement
COc1cc(C(=O)NCCc2nc3ccccc3[nH]2)cc(OC)c1OC	-4.4%
COc1cc([N+](=O)[O-])ccc1NC(=O)c1cccc2ccccc12	18.9%
CCC(C#CCN1CCCCC1)(CC)OCCC#N	-2.6%
CCOC(=O)c1sc(NC(=O)c2cc([N+](=O)[O-])ccc2Cl)c(C(=O)OCC)c1C	-7.6%
CCC1CCCCN1Cc1c(O)ccc2c(=O)c(-c3ccccc3)coc12 (centres undefined)	-10%
CCOC(=O)c1sc(NC(=O)c2cc3n(n2)C(C(F)(F)F)CC(c2ccccc2)N3)c(C(=O)OCC)c1C (centres undefined)	5.8%
O=C(CCCOc1ccc(Cl)cc1Cl)Nc1ncn[nH]1	5.1%
COc1cc2c(cc1NC(=O)CN1C(=O)c3ccccc3C1=O)oc1ccccc12	-0.6%
Cc1cc([N+](=O)[O-])ccc1-c1ccc(C(=O)Nc2ccc3c(c2)oc2ccccc23)o1	-10.8%
COc1ccccc1-n1c(SCC(=O)c2ccc(Cl)cc2)nc2ccccc2c1=O	-0.7%
CC1=C(C)CC2C(=O)N(c3cccc(C(F)(F)F)c3)C(=O)C2C1 (centres undefined)	-12.8%
COc1cc(/C=N/N2C(=O)c3cccc4cccc(c34)C2=O)cc(I)c1O	7.1%
Cc1cnc2sc(C(=O)Nc3ccccc3)c(C(=O)O)n2c1=O	-5.8%
Cc1ccc(C2(C)NN=C(c3ccccc3)S2)o1 (centres undefined)	-3.5%
Cc1cc(C)c(C#N)c(SCc2ccc(Br)cc2)n1	13.8%
Cc1cccc(N2C(=O)C(Cl)=C(Nc3ccc(C)c(Cl)c3)C2=O)c1	1.9%
O=C(Nc1ccc(I)cc1)C1COc2ccccc2O1 (centres undefined)	-6.8%
CCN(CC)CCSc1nc(O)c(Cc2ccccc2)c(=O)[nH]1	-7.1%
COc1ccc(N(CC(=O)Nc2c(C)n(C)n(-c3ccccc3)c2=O)S(=O)(=O)c2ccccc2)c(OC)c1	1.6%
Cc1nn(C)c2[nH]c(C(F)(F)F)cc(=O)c12	11.5%
CCOC(=O)C1NN=C(C(=O)c2ccccc2)C1c1ccc(OC)cc1 (centres undefined)	-6.5%
CCOc1ccc2c(CC)cc(=O)oc2c1	12.3%

SMILES	displacement
COc1ccc(C(=O)N2N=C(c3ccc(Br)cc3)CC2(O)C(F)(F)F)cc1 (centres undefined)	-6.7%
CCOC(=O)C1=C(C)N=c2s/c(=C\c3ccc(I)cc3)c(=O)n2C1c1ccc(OC)c(OC)c1 (centres undefined)	111%
O=C1c2ccc(Oc3ccc([N+](=O)[O-])cc3)cc2C(=O)N1c1cccnc1	10%
CCCOC(=O)NC(c1ccccc1)C(Cl)(Cl)Cl (centres undefined)	0.7%
Cc1ccccc1C1C(C=O)=C(c2cccs2)Oc2ccccc21 (centres undefined)	6%
Cc1cccc(NCC(O)Cn2c3ccccc3c3ccccc32)c1C (centres undefined)	-1.9%
COc1ccc(/C=C2/SC(=S)NC2=O)cc1OCc1ccc(Cl)cc1	4.2%
CC(=O)CC1(O)C(=O)Nc2ccc(Br)cc21 (centres undefined)	10.6%
O=C(NCC1CCCO1)c1ccc2c(c1)C(=O)N(N1C(=O)c3ccccc3C1=O)C2=O (centres undefined)	-2.8%
Cc1ccc(S(=O)(=O)NCCSCc2ccccc2Cl)cc1[N+](=O)[O-]	-8.5%
CCCCCCCNc1nc(OC)nc(N2CCCCC2)n1	0.8%
O=C(Nc1ncc(Cc2ccc(Cl)cc2Cl)s1)c1ccccc1Br	12.1%
O=C(COc1ccc(Cl)cc1Cl)N1CCN(c2cccc(Cl)c2)CC1	-5%
Cc1cc(Cl)ccc1NS(=O)(=O)c1cccc([N+](=O)[O-])c1	-1.2%
Cc1cc(C)cc(NC(=O)COc2ccccc2)c1	4.6%
Cc1ccc(-c2ccccc2)n1-c1cccc2cccnc12	12.2%
COc1ccc(C(=O)c2c(C)oc3c2cc(O)c2ccccc23)cc1	6.3%
CN1CCN(/N=C/c2ccc([N+](=O)[O-])s2)CC1	-2.3%
NS(=O)(=O)c1cccc(NC(=O)Cc2ccccc2)c1	-11.1%
COc1cc(CNc2cccc(C)c2)cc(OC)c1OC	5.3%
COc1cccc(N2C(=O)/C(=C/c3cccc4ccccc34)SC2=S)c1	6.6%
COc1ccc(C)cc1NC(=O)C(=O)NCCCO	10.3%

SMILES	displacement
CCCCCCCN1C(=O)/C(=C2\SC(=S)NC2=O)c2ccccc21	7.1%
COc1cc(C(=O)Nc2ccc3oc(-c4cccnc4)nc3c2)cc(OC)c1OC	4%
CC(=O)Nc1ccccc1NC(=O)c1ccccc1Br	0%
CCC(=O)NC(Nc1cc(Cl)ccc1OC)(C(F)(F)F)C(F)(F)F	-9.3%
O=C(Nc1sc2c(c1C(=O)N1CCCCC1)CCCC2)c1cccs1	3%
Cc1ccc(NC(=O)c2ccc(-c3ccccc3)cc2)cc1F	-6%
O=C1CC(n2cnc3ccccc32)C(=O)N1c1ccccc1 (centres undefined)	0.5%
COc1ccc(NC(=O)CSc2ncccn2)cc1	5.6%
CCOC(=O)C1=C(C)NC(=S)NC1c1cccc(C)c1 (centres undefined)	-2.8%
Cc1ccc(C(=O)Nc2cccc(-c3nc4ccccc4s3)c2C)cc1C	2.3%
Cc1nnc(SCC(=O)NC(C)c2ccccc2)[nH]c1=O (centres undefined)	-3.9%
CCCNC(=O)c1c(NC(=O)c2ccccc2C)sc2c1CCC2	-14.5%
CCOC(=O)C(=O)c1cc(-c2ccccc2)c(-c2ccccc2)s1	7.9%
Cc1cc(C)nc(NC(=O)CC(c2ccccc2)c2ccccc2)c1	4.1%
COC(=O)C(NC(=O)C(C)NC(=O)OCc1ccccc1)C(C)C (centres undefined)	-10.4%
O=C(Nc1ccc(S(=O)(=O)Nc2ncccn2)cc1)c1cc2ccccc2o1	-2.5%
CC(=O)Oc1ccc(-c2cccc(C(=O)O)c2)cc1	-7.2% and 9.3%
O=C(Nc1ccc(S(=O)(=O)N2CCOCC2)cc1)c1ccc(Cl)cc1	-13.6%
COC(=O)C1=C(C)N(C)C(=O)NC1c1ccccc1OCc1ccccc1 (centres undefined)	0.6%
O=C(Oc1ccc(/C=N/O)cc1)c1ccc(Br)cc1	1.6%
CNCCOc1cc(C)nc(-c2ccccc2)n1	10.2%
O=[N+]([O-])c1ccc(/C=N/Nc2ccc(C(F)(F)F)cn2)cc1	-1%

SMILES	displacement
COC(=O)c1ccc(-c2nnc(Nc3ccccc3C)c3ccccc23)cc1	21.6%
O=C(O)c1cccc(-c2ccc(/C=C3\SC(=S)N(c4cccc(F)c4)C3=O)o2)c1	-46.8%
COc1ccccc1/C=C1\SC(=S)N(c2ccc(Br)cc2)C1=O	7.7%
Cc1cc(OCC(=O)Nc2ccc(F)c([N+](=O)[O-])c2)ccc1Cl	7.6%
O=C(O)CCN1C(=O)/C(=C/c2ccc(Cl)c([N+](=O)[O-])c2)SC1=S	16.5%
COc1ccccc1/C=N/Nc1nc(-c2ccccc2)nc(C)c1C	-3.8%
O=C(Cc1nnc(NC(=O)Nc2ccccc2)s1)Nc1ccccc1	4.5%
CC(C)CCc1c(O)nc(SCCN(C)C)[nH]c1=O	-5.6%
Cc1ccc(C(=O)NC(=S)Nc2ncc(C(F)(F)F)cc2Cl)cc1	-10.6%
COCCCNC(=O)c1ccc(C(=O)NCCCOC)cc1	-6.5%
CCOc1ccc(NC(=O)C(C)Sc2ccc(Cl)cc2)cc1 (centres undefined)	-0.7%
OC(COCc1ccc(Cl)cc1)CSc1nc2ccccc2s1 (centres undefined)	-4.5%
c1cnc(Nc2nc(-c3cccnc3)cs2)nc1	12.8%
N=C(SC1CC(=O)N(c2cccc3ccccc23)C1=O)N1N=C(c2cccs2)CC1c1ccc(Br)cc1 (centres undefined)	85.7%
Cc1ccc([N+](=O)[O-])cc1NC(=O)C1CC1	-2.5%
Cc1cc(OCC(=O)Nc2c(C)cc(Br)cc2C)ccc1Cl	10.5%
COc1ccc(C2CC(=O)C3=C(C2)Nc2ccccc2NC3c2coc3ccccc3c2=O)cc1OC (centres undefined)	-2.3%
O=c1[nH]n(-c2ccc(Cl)cc2)c(O)c1/C=C1\C=Nc2ccccc21	11.4%
O=C(O)c1ccc(CNC(=O)C2C3CCC(C3)C2C(=O)O)cc1 (centres undefined)	-3.4%
O=C(O)C1=C2C(=O)Nc3cccc(c32)C2(C1)C(=O)Nc1ccccc12 (centres undefined)	21.1%
CN(/C=C/C=C1\CC/C(=C\C=C\N(C)c2ccccc2)C1=O)c1ccccc1	5.5%
Cc1ccc(-c2nc3cc(Cl)ccc3o2)cc1NC(=O)c1ccc2c(c1)OCCO2	102%

SMILES	displacement
Cc1cc(COc2ccccc2OCc2cc(C)no2)on1	1.2%
Cc1nnc2c3c4c(sc3nc(-c3ccccc3)n12)COC(C)(C)C4	-3%
O=C1N=c2ccccc2=C1c1sc(=O)n(-c2cccc(O)c2)c1O	-5.8%
Cc1cccc(NC(=O)CSc2nc3ccc(N4C(=O)c5ccccc5C4=O)cc3s2)c1C	13.2%
Cc1cccc(Cl)c1OCCOCCNCCO	-4.8%
O=C1c2ccccc2C(=O)N1c1cccc2ncccc12	-3.4%
Cc1cn(S(=O)(=O)c2ccc(Cl)cc2)c(C)n1	-6%
COc1ccc(-n2nnnc2C(=Cc2ccc(N(C)C)cc2)c2nnnn2-c2ccc(OC)cc2)cc1	157%
CC1=C(C(=O)OC(C)C)C(c2ccc(C(C)C)cc2)NC(=O)N1 (centres undefined)	7.9%
O=C1c2ccccc2C(=O)C1(Nc1ccc2c(c1)oc1ccccc12)c1ccccc1	-6.3%
COc1ccc(C2CC(=O)C3=C(C2)OC2=C(C(=O)CC(c4ccc(OC)cc4)C2)C3c2ccc(OC)c(OC)c2)cc1 (centres undefined)	5.4%
COc1ccc(Cc2c(O)nc(SCC(C)C)[nH]c2=O)cc1	3.1%
COc1ccc(C2/C(=C(\O)c3ccccc3)C(=O)C(=O)N2Cc2cccnc2)cc1 (centres undefined)	9.4%
COc1cc(C(c2c(C)[nH]c3ccccc23)c2c(C)[nH]c3ccccc23)ccc1O	2.2%
COC(=O)C1=C(C)N(c2ccc(C)cc2)/C(=C\c2ccc(OCC(=O)Nc3ccccc3)cc2)C1=O	11.6%
COc1cccc(/C=c2/sc3nc4ccccc4n3c2=O)c1	92.4%
O=C(CN(c1ccccc1)S(=O)(=O)c1ccccc1[N+](=O)[O-])N1CCOCC1	3.2%
OC(COc1ccccc1)CSc1nc2ccccc2s1 (centres undefined)	-13.3%
COC(=O)c1ccc(-c2ccc(/C=c3/sc4nc5ccccc5n4c3=O)o2)cc1	16.2%
O=C(COC(=O)c1ccc(C#Cc2ccccc2)cc1)c1ccc([N+](=O)[O-])cc1	-3.8%
CCOC(=O)C1=NNC2C(=O)N(c3ccc(F)cc3)C(=O)C12 (centres undefined)	8%
